These results are taken from publication PMC10726135.

The list shows a part of the results. At the low end of the ranking the order means little. The protein was read in a cell extract, so binding may be indirect.

This assay concerns the target T1, HNF4alpha8 (COS-7 nuclear extract) (UniProt P41235-5).
T1 sequence: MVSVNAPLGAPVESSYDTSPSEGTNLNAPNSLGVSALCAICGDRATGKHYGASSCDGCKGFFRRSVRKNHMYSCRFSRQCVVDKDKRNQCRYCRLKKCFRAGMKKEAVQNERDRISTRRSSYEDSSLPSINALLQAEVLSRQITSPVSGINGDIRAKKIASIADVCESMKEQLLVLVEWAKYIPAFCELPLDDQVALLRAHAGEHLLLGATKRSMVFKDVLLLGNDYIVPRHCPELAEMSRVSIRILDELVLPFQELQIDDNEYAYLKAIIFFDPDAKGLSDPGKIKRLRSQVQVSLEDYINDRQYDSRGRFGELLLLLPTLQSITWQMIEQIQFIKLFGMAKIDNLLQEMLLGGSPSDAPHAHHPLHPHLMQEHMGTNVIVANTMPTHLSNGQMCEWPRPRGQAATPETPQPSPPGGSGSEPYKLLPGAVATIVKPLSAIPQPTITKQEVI
Nature of the assay: protein-binding microarray. To be noted: COS-7 nuclear extract on double-stranded Agilent 4x180k PBM; binding buffer, salt, pH and temperature not given; high values mean tight binding; double strand, one strand shown; sequences stand for … in …GCCTAGGGAGATTAGAGTATCGGTCGA
Take AATATCTCAGCACATGGCAGTGTACACTAG: the binding signal (log2 normalized intensity) worked out at 0.805.

With GCGCAGACGGCGGATCCTCCCAGCCTGGAG, the binding signal (log2 normalized intensity) is -1.44.

CTGAACATGGTGACACACACCTCCAGCCAC: the binding signal (log2 normalized intensity) was -1.38.

Consider AAGGCCAGAGAAAGAGAGAGTTAGTTCTGC, for which the binding signal (log2 normalized intensity) is -1.32.

CGGGTGAAGGTTAAATAGCTCATTAAGCTT: the binding signal (log2 normalized intensity) is -1.2.

For the sequence GGCTGTTTGGGAACCGTTAGCAACCGGAAG, the binding signal (log2 normalized intensity) is -1.27.

Take TCACAGGAATGTTGGCAGCATCGTGTTGGG: the binding signal (log2 normalized intensity) was 0.111.

For the sequence GTAGGAAGGCTTTGAAGTCTGGTGGCAAGT, the binding signal (log2 normalized intensity) is -0.389.

In the case of CTCTCCTGAGGCAAGTCTCTTTTAGGCTGT, the binding signal (log2 normalized intensity) turned out to be 0.363.

As for CACTAATTAACTGAGCCTCAGAACCATTTG, the binding signal (log2 normalized intensity) was -1.31.

On to CATACTCAAAGAATTTAACACCAGATAAAC, for which the binding signal (log2 normalized intensity) is -1.2.

Turning to GCCTTTAGGGCCCCCTGTGATTACTTCCAC, the binding signal (log2 normalized intensity) was determined as 1.67.

For GAAGCTGGTAGCATGGCTCAGTCCAAGTCC, the binding signal (log2 normalized intensity) was 0.896.

CAGTGAGACAGAAGTAAAACAGGTAGAGAG: the binding signal (log2 normalized intensity) is -1.36.

Turning to ATATACTGTGTATACAAAGATCAGTGTACT, the binding signal (log2 normalized intensity) was 1.41.

Take TGGGGACGCCCACTGCTTTGTTCCCTGGCT: the binding signal (log2 normalized intensity) was -1.42.

On to ATCTCAAATAGCTGGGTCTCACTCTGACCC, for which the binding signal (log2 normalized intensity) was 3.93.

As for CTGCTGGTTTTTGTCAAAGATAGTTGTAGT, the binding signal (log2 normalized intensity) was 1.62.

In the case of CTTCAGCCTCCCGAGTAGTTGGGTCAACAG, the binding signal (log2 normalized intensity) was 2.04.

Regarding CAGGGTCGGAATGTCTGGGCAAAGGGGAGG, the binding signal (log2 normalized intensity) was -1.16.

In the case of AGTGGCAACCCTTGACCCCAGTAACAAAGG, the binding signal (log2 normalized intensity) was 5.17.

Regarding GTTAGGAAACACTCTGTTTGTAAAGTCTAC, the binding signal (log2 normalized intensity) was determined as 0.618.

As to ATAGCTGTTCATTAGACTCAGGGAACTCCC, the binding signal (log2 normalized intensity) turned out to be 0.305.

As for CAAACAGACCTCCCCCAACTTACTTAGTGG, the binding signal (log2 normalized intensity) was found to be 2.07.

As to AGGCTCCCTGCTGCGGAGAGTTCCCTTGGA, the binding signal (log2 normalized intensity) was -0.846.

Take GCAATTACTCAATAACCACATGAATACACA: the binding signal (log2 normalized intensity) was -1.18.

Regarding GCAGGCAGGGACTTTGGCCCACGGTCCTTT, the binding signal (log2 normalized intensity) came to 3.51.

Take GGGGTCTAGAACAGCTCCTTTGAAGCTTCG: the binding signal (log2 normalized intensity) was -1.3.

With AAACTGAGATCTAAGCGATAAGGAGGAAGG, the binding signal (log2 normalized intensity) was -1.34.

Turning to GACCGGTTCCGCGGTCCGCAGCGCTGGTGG, the binding signal (log2 normalized intensity) was -1.24.

In the case of GGTAATCACCAAACTTCACAATGGGCCCCA, the binding signal (log2 normalized intensity) is -1.37.

For the sequence GTCTAACCGCAGCAAGACACTTCCAGCCAA, the binding signal (log2 normalized intensity) was -1.3.

Regarding ATAATGCCAGGCAGGAAGGAGCCTGCTTTG, the binding signal (log2 normalized intensity) is -1.33.

Turning to CAGTATTGATGTGAGGGTAGGAGCCTAGCT, the binding signal (log2 normalized intensity) was -1.34.

Take AAATGTGAATGGACTCTGCCCTTAGCAGTG: the binding signal (log2 normalized intensity) worked out at 5.06.

CACCAGAGGGAACGCCCGACGCGAAGGCAG: the binding signal (log2 normalized intensity) is -1.08.

With AACTGTCCAGGCTGCACAGTGGGGAGGGCA, the binding signal (log2 normalized intensity) was -1.31.

For the sequence GACCTTTCTTTATGGACCTTGTCCCTGGAT, the binding signal (log2 normalized intensity) was 5.2.

As for CACTTCTCTCTCCAAGGCACAGAGAAGAAT, the binding signal (log2 normalized intensity) was -1.27.

Take AATAGGGGCTGGGTAAAATGAGAATGAGAC: the binding signal (log2 normalized intensity) is -1.21.

TTGCAGTGGCAAGGCAAAAGAGACAGGACT: the binding signal (log2 normalized intensity) is -1.33.

In the case of AACCTCCTCCAGGTTCTCATACCTTCTGCT, the binding signal (log2 normalized intensity) was -1.38.

For the sequence AGTTGTTGTGAGAGTGAGGTGACTTGTCCT, the binding signal (log2 normalized intensity) is 1.74.

On to TAAGATTTGGAAAATATTGCCAATATCTGC, for which the binding signal (log2 normalized intensity) is -1.32.

As to CTGCTGGCTGAGCATCACCAGTGCAGCTGA, the binding signal (log2 normalized intensity) is -1.28.

GAAGAAAACAATGACCTCTGCACCCTTCCC: the binding signal (log2 normalized intensity) came out at 5.13.

For TCTGGTAAATTTCTAACACTCCCCAGGACA, the binding signal (log2 normalized intensity) came to 2.81.

With TCACAATGGGGCATGACTTGTTATCACCTG, the binding signal (log2 normalized intensity) amounted to 0.285.

On to CCTTTGTCTCCAGGCAAACTACAGTTTCTG, for which the binding signal (log2 normalized intensity) is -0.771.

With AGAGCAGGGCCCGAGGCCTTGAGCATACAA, the binding signal (log2 normalized intensity) was -1.22.

For AGGAAGCATCCTATAGGCCTATAATTAGGT, the binding signal (log2 normalized intensity) is -1.07.

Take GTCCATCCTGTCTCACCAGACCAAGAGCTT: the binding signal (log2 normalized intensity) was -1.04.

CTGCTCTGTTTTCTTTCGGTCACCCACACA: the binding signal (log2 normalized intensity) is 1.59.

Take TCTCTTCTTCCCCTCCTTCAGGTCAAGAGG: the binding signal (log2 normalized intensity) was 2.95.

As for TCCTCTGGATACCCTTCCCCCCAAGGCTTC, the binding signal (log2 normalized intensity) worked out at 5.26.

Consider TAGGCCAGGCGGAGCACACCAGGCCCTCGG, for which the binding signal (log2 normalized intensity) is -1.13.

On to AATGATCTTGGCTGCTTTAGACATGAGATA, for which the binding signal (log2 normalized intensity) is -0.654.

For the sequence CTGCCTCTTCAGGAGGCACTGATAAGCGTA, the binding signal (log2 normalized intensity) is -1.34.

With GGACAGGAGCTCATACCTCTTACCAGATAG, the binding signal (log2 normalized intensity) was -1.28.

Turning to AGCGGGGGACCGAGAGCCGCCGCCGTGGGA, the binding signal (log2 normalized intensity) was -1.23.

For TCCCCTGACAGCATGTTCGGCTGAGACCTG, the binding signal (log2 normalized intensity) stood at 0.595.

Take TGGTGCAAATACCATCCCCAGAGCCGGAGC: the binding signal (log2 normalized intensity) stood at 3.04.

As for AAATACACAGGTAAACATTTGCCTTTAGGG, the binding signal (log2 normalized intensity) is -0.993.

For TTGGTGACCAGTCTGCCTGACTCCAGAGTC, the binding signal (log2 normalized intensity) is -1.26.

On to AAGCAGGACAGCAGAGTGGAGGCCAGCGCC, for which the binding signal (log2 normalized intensity) is -1.4.

On to GAATATTCAGATATTCCTGGAATGACAAGA, for which the binding signal (log2 normalized intensity) worked out at 0.948.

Regarding AAAGGTCATTTCTGCTTGCAACCAAAGGAG, the binding signal (log2 normalized intensity) came to 1.78.

With AGAGTTAGGGCCTTGCTATGGAGTGGACTT, the binding signal (log2 normalized intensity) turned out to be 3.91.

As for GTCCAGACACAAAGAGACAAAGCTTTGAAG, the binding signal (log2 normalized intensity) is -1.07.

Turning to CGTATTATCTTATCTCCTCTGTAGGGCAGC, the binding signal (log2 normalized intensity) stood at 1.12.

For TAGCTTGGTGCAGGGGCGGGGCCGCGCGTC, the binding signal (log2 normalized intensity) was -1.31.

Consider GTGTTCCAGAGCCTCCAAAGTCCGCTTGCC, for which the binding signal (log2 normalized intensity) was found to be 1.73.

Consider CTCCACTCTCATAAAAGAGGCCAATTTCTT, for which the binding signal (log2 normalized intensity) is -0.623.

On to ATAGTTTGACTTTCTCTCTTCCTATTCAGA, for which the binding signal (log2 normalized intensity) is -0.919.

Take TCTGCCATCTACTAAGTGCTTAGTATGTGC: the binding signal (log2 normalized intensity) stood at 0.009.

Take TGAGACTTTCCTGTTGGGGAGCAAAGGTTA: the binding signal (log2 normalized intensity) was determined as 6.1.

Turning to CATAATTGCAAAATCCTTAGCAAATAGAGA, the binding signal (log2 normalized intensity) was -1.46.

Turning to AGGTGTTCTTTCCCTCCAGCCCACTTACCA, the binding signal (log2 normalized intensity) amounted to 1.97.

In the case of TCTGGATGGCTGAGCTGTAAGGACATAAGC, the binding signal (log2 normalized intensity) came to 0.241.

With TTGGAAAAAAAAAAAAAAAAAAGAACACAG, the binding signal (log2 normalized intensity) was -1.27.

For GCATGCCATTTTGCAATTGACAAATGGCTT, the binding signal (log2 normalized intensity) was -1.28.

Consider ACTGCAACCTGATAAGATTTTAGAAGTCAC, for which the binding signal (log2 normalized intensity) is -1.21.

GTGTCAGAGAAGGAGCCAGAGCTTTGGGAA: the binding signal (log2 normalized intensity) was -1.34.

For the sequence CATACAGGCCAGCTGTCTGGTTTGACCTTA, the binding signal (log2 normalized intensity) was 5.8.

Turning to GGAAACTCCATTTCCTTCTAGCTCCCCAAT, the binding signal (log2 normalized intensity) came out at 3.27.

Regarding TGCTTGTCTTGGTTGTAGAAGGCTTAAGAT, the binding signal (log2 normalized intensity) was determined as 1.16.

CAGGATTACTATAGGTTCTACTCTCCCCAG: the binding signal (log2 normalized intensity) worked out at 1.62.

As for TGGGAACTGCGGACATAGCTTGCCACAGCA, the binding signal (log2 normalized intensity) was -1.34.

With ACCAGACAAGATCAATCAATTTACCTCTGC, the binding signal (log2 normalized intensity) was -1.52.

For CCCAGTGCTCTCTCCTGCATTCCTGTCCAC, the binding signal (log2 normalized intensity) amounted to 0.684.

As for CCTCCCCCCTTGGCTACATGTTTGTCTTTC, the binding signal (log2 normalized intensity) turned out to be 2.91.

For the sequence ACATTGTCCATCACCTGGCTCTGAAAAACA, the binding signal (log2 normalized intensity) is -1.32.

Take TTCTGCTTCTTCTCATTCTTGGAATAAGCA: the binding signal (log2 normalized intensity) was -1.25.
